Experimental data taken from patent publication US12390508B2, “Brain natriuretic peptide engrafted antibodies” (Boehringer Ingelheim International GmbH, priority 2018, dated 2025).
Each block holds one molecule with its values, some of them ahead of it.

How the values were obtained:
[1] = biological target: T1, insulin degrading enzyme (IDE) (Rattus norvegicus, UniProt P35559); assay: Sensitivity towards proteolytic degradation by insulin degrading enzyme (IDE); details: 4 hours incubation with 0.6 μg/ml IDE at 37° C., then activity on the rat receptor cell line
T1 sequence (P35559 42-1019 limits assumed): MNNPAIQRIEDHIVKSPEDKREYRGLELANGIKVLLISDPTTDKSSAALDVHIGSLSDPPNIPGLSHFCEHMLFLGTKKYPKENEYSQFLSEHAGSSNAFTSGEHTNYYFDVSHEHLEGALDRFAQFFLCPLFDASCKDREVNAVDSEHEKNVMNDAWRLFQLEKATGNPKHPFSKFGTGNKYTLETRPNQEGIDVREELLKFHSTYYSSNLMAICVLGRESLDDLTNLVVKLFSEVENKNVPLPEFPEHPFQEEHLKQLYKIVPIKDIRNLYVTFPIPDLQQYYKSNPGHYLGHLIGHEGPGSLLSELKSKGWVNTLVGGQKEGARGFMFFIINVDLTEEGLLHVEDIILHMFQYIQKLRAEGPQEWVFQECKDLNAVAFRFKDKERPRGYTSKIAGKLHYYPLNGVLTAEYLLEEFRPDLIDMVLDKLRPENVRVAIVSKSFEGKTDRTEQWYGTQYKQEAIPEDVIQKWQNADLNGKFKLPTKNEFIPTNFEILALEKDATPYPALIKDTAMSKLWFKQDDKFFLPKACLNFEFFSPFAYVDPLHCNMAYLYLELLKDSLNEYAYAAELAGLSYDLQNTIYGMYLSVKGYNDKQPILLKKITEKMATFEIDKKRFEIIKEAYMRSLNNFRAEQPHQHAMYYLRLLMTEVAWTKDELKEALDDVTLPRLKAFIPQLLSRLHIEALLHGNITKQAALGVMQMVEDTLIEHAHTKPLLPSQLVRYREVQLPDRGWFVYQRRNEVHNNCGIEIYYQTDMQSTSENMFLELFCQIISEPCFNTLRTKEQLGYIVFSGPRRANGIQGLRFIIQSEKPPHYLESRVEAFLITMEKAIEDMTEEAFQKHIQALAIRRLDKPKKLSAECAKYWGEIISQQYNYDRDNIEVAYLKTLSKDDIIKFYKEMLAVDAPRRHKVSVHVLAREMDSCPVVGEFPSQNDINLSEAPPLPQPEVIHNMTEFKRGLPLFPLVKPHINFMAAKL

[2] = biological target: T2, neutral endopeptidase (NEP) (Homo sapiens, UniProt P08473); assay: Sensitivity towards proteolytic degradation by neutral endopeptidase (NEP); format: in vitro ADME; details: 4 hours incubation with 0.6 μg/ml NEP at 37° C., then activity on the rat receptor cell line
T2 construct: purchased R&D Systems 1182-ZNC
T2 sequence (P08473 52-750 limits assumed): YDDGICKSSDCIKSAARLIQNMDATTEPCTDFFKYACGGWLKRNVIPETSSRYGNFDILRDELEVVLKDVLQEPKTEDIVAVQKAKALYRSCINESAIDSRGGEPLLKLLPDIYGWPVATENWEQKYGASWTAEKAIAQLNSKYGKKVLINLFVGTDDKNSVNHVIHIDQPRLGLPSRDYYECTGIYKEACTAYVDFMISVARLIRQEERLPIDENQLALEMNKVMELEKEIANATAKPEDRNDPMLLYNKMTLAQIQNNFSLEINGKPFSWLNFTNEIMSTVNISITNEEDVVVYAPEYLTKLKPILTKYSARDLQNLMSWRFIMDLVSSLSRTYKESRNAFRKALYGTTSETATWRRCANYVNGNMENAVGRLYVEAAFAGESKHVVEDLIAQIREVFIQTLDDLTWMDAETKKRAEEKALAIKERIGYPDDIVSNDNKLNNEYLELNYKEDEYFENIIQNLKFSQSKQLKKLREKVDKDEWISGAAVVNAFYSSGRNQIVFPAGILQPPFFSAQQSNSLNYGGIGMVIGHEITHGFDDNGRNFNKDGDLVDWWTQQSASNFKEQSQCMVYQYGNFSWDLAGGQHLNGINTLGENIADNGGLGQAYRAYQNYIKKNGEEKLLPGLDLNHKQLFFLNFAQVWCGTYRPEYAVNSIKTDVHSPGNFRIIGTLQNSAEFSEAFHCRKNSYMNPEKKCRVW

[3] = Purity of purified compound samples by capillary Gel Electrophoresis under reduced conditions; details: reduced conditions
Experimental: The purity of purified compound samples (Example 5, Table 7, column “% purity pcs”) was determined by capillary Gel Electrophoresis according to manufacturer's instructions (LabChip GX, Caliper Life Sciences) under reduced conditions. The purity in % was calculated as sum of peak areas corresponding to the intact light and heavy chain relative to the sum of all peaks observed.

human NPRA (hNPRA) = biological target: T3, human NPRA (hNPRA) (Homo sapiens, UniProt P16066); assay: cGMP quantification assay (HTRF) on stable hNPRA-CHO k1 cells (rcs, ics, pcs); format: cell-based; details: for significant activity on hNPRA cells: BNP engrafted constructs, 'in contrast' = not significantly active
T3 construct: expressed in transfected cells
T3 sequence (P16066 33-1061): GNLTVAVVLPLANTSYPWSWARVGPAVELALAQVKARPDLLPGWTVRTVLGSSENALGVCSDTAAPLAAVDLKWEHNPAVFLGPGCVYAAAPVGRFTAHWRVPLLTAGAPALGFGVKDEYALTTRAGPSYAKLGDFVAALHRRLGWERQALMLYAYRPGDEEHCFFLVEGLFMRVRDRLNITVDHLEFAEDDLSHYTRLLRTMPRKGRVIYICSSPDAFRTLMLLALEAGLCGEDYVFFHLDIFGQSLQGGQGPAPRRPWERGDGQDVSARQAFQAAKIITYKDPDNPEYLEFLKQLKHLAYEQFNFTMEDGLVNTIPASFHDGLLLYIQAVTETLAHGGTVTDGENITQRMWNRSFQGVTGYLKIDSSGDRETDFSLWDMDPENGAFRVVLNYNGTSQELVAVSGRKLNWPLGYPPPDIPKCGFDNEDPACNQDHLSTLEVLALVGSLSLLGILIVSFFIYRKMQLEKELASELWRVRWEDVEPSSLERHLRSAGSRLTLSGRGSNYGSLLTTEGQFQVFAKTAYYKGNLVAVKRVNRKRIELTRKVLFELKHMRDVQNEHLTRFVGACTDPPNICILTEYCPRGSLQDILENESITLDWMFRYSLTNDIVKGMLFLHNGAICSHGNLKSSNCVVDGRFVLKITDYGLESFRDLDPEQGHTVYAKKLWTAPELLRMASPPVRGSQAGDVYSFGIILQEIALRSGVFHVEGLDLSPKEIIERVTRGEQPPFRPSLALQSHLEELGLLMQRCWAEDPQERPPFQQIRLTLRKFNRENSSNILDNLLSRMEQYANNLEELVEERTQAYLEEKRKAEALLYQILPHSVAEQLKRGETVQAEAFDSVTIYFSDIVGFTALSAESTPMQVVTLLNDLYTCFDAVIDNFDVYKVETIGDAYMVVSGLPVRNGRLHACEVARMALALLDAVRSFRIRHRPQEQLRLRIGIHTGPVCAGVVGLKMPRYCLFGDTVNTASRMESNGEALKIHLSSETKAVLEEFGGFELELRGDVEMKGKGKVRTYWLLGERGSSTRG
Experimental: All activities shown in Tables 7 and 8 were measured on cells with heterologous over expression of human NPRA (hNPRA) by use of a cGMP quantification assay conducted according to manufacturer's instructions (cisbio; 62GM2PEH). In brief, the assay quantifies cGMP in buffered solution or cell-culture supernatants based on the competition between cGMP produced by the cell as result of the NPRA stimulation through the (natriuretic peptide) sample and d2 labelled cGMP for binding to a Cryptate labelled antibody. Sample cGMP and d2 labeled cGMP compete for binding to a limited number of sites on Cryptate labeled anti-cGMP antibodies, and consequently, HTRF® specific fluorescent signal (i.e. energy transfer) is inversely proportional to the concentration of cGMP in the sample.
Dose-response curve data were analyzed with GraphPad Prism (version 7.00 for Windows, GraphPad Software, La Jolla California USA) and EC50 were fitted according to Y=Bottom+(Top-Bottom)/(1+10^((LogEC50−X)*HillSlope)) applying constraints for bottom, top and slope (shared value for all data sets of the respective experiment).
The raw compound sample activity on stable hNPRA-CHO k1 cells was first assessed by comparison to the negative control TPP-5657 and to a positive sample, in particular TPP-5661. Controls and rcs were tested in quadruplets in two concentrations with a relative dilution factor of 5 aiming for a fluorescent signal (s) in the dynamic range of the assay. […] Values listed in Table 7, columns “activity rcs” and “stdev activity rcs”, represent the average of the results for the two concentrations and the respective standard deviation. Rcs signals less than half of the signal of the reference compound TPP-5661 (36%) were assessed as not active (n.a.).
The activity of several raw compound samples on stable hNPRA-CHO k1 cells was reassessed by comparison to reference sample TPP-5661 in 2.5-fold dilution series (8 concentrations) starting with a 5-fold dilution. The “log EC50” fit value as activity measure of the rcs was set in relation to the corresponding value of the reference rcs TPP-5661 by calculating the delta “log EC50”_compound−“log EC50”_TPP-5661; resulting values are listed in Table 7, column “rel. activity rcs”. […] All samples were applied in quadruplets.
The activity of isolated compound samples on stable hNPRA-CHO k1 cells was assessed by EC50 determination and comparison to reference sample TPP-5661. Samples were tested in 2.5-fold dilution series from 80 nM to 0.13 nM. The log EC50 fit value as activity measure of the ics was set in relation to the corresponding value of the reference ics TPP-5661 (−8.8) by calculating the delta log EC50_compound−log EC50_TPP-5661; resulting values are listed in Table 7, column “rel. log EC50 ics”. All samples were applied in quadruplets.
The activity of purified compound samples on stable hNPRA-CHO k1 cells was assessed in multiple experiments by EC50 determination and comparison to reference sample TPP-5661. Samples were tested in dilution series at least in quadruplets. […] The log EC50 fit value as activity measure of the pcs was set in relation to the corresponding value of the reference TPP-5661 in the respective experiment (in average −9.2, standard deviation 0.5) by calculating the delta log EC50_compound−log EC50_TPP−5661.
Purified compound samples were tested as described in Example 3 in quadruplets in dilution series on stable hNPRA-CHO k1 cells. […]

[4] = Table 9 (excerpt of Table 7), capillary gel electrophoresis, sum of intact light and heavy chain peaks
[5] = purified compound samples, capillary Gel Electrophoresis

B1: TPP-12377: CNP engrafted antibody, CDRH3; HC SEQ ID NO 445, LC SEQ ID NO 66 (antibody, listed as Homo sapiens)
heavy: EVQLLESGGGLVQPGGSLRLSCAASGFTFSSYAMSWVRQAPGKGLEWVSAISGSGGSTYYADSVKGRFTISRDNSKNTLYLQMNSLRAEDTAVYYCTSVHQETKKYQSSPYKGANKKGLSKGCFGLKLDRIGSMSGLGCGSGGSGSYSYTYNYEWHVDVWGQGTLVTVSS[in this place human IgG1 constant region]
light: QSVLTQPPSVSGAPGQRVTISCTGSSSNIGAGYDVHWYQQLPGTAPKLLIYGNSNRPSGVPDRFSGSKSGTSASLAITGLQAEDEADYYCQSYDSSLSGVVFGGGTKLTVLGQPKAAPSVTLFPPSSEELQANKATLVCLISDFYPGAVTVAWKADSSPVKAGVETTTPSKQSNNKYAASSYLSLTPEQWKSHRSYSCQVTHEGSTVEKTVAPTECS
modifications: NP engrafted HC
sensitivity towards proteolytic degradation by IDE [1]: high resistance | sensitivity towards proteolytic degradation by NEP [2]: high resistance

B5: TPP-9902: BNP engrafted antibody with human BNP sequence; HC SEQ ID NO 442, LC SEQ ID NO 66 (antibody, listed as Homo sapiens)
heavy: EVQLLESGGGLVQPGGSLRLSCAASGFTFSSYAMSWVRQAPGKGLEWVSAISGSGGSTYYADSVKGRFTISRDNSKNTLYLQMNSLRAEDTAVYYCTSVHQETKKYQSSPDGGSGGMVQGSGCFGRKMDRISSSSGLGCKVLRRGSYSYTYNYEWHVDVWGQGTLVTVSS[in this place human IgG1 constant region]
light: B1 light
modifications: NP engrafted HC
significant activity on hNPRA cells (human NPRA (hNPRA); purified compound samples): significant activity

Continued, in another order:

rel. activity res (human NPRA (hNPRA); rcs, stable hNPRA-CHO k1 cells, relative to TPP-5661, higher concentrations): −0.3
B2: TPP-10282: ANP engrafted antibody, CDRH2; HC SEQ ID NO 69, LC SEQ ID NO 66 (antibody, listed as Homo sapiens)
heavy: EVQLLESGGGLVQPGGSLRLSCAASGFTFSSYAMSWVRQAPGKGLEWVSAISGSGSGSGSGSGSPDGGSGGSLRRSSCFGGRMDRIGAQSGLGCNSFRYGSYGSGSGSGSGSGSTYYADSVKGRFTISRDNSKNTLYLQMNSLRAEDTAVYYCAKLTGAEYFQHWGQGTLVTVSS[in this place human IgG1 constant region]
light: B1 light
modifications: NP engrafted HC
% purity pcs [3, 4]: 99% | % purity pcs [3, 5]: 99%

activity after compound preparation (pcs) (human NPRA (hNPRA); stable hNPRA-CHO k1 cells, purified compound samples): activity of #61 was shown | activity of raw compound samples (rcs) (human NPRA (hNPRA); stable hNPRA-CHO k1 cells, two concentrations, vs TPP-5657 and TPP-5661): no activity
B3: TPP-10847: ANP engrafted antibody, CDRH2; HC SEQ ID NO 75, LC SEQ ID NO 66 (antibody, listed as Homo sapiens)
heavy: EVQLLESGGGLVQPGGSLRLSCAASGFTFSSYAMSWVRQAPGKGLEWVSAISGTSASLAITGPDGGSGGSLRRSSCFGGRMDRIGAQSGLGCNSFRYGSDRFSGSKSGGSTYYADSVKGRFTISRDNSKNTLYLQMNSLRAEDTAVYYCAKLTGAEYFQHWGQGTLVTVSS[in this place human IgG1 constant region]
light: B1 light
modifications: NP engrafted HC
% purity pcs [3, 4]: 97% | % purity pcs [3, 5]: 97%

significant activity on hNPRA cells (human NPRA (hNPRA); purified compound samples): significant activity
B4: TPP-11156: BNP engrafted antibody with human BNP sequence; HC SEQ ID NO 443, LC SEQ ID NO 66 (antibody, listed as Homo sapiens)
heavy: EVQLLESGGGLVQPGGSLRLSCAASGFTFSSYAMSWVRQAPGKGLEWVSAISGSVVVTSHQAPGGGSGGMVQGSGCFGRKMDRISSSSGLGCKVLRRGEKKKLKSLAYGSTYYADSVKGRFTISRDNSKNTLYLQMNSLRAEDTAVYYCAKLTGAEYFQHWGQGTLVTVSS[in this place human IgG1 constant region]
light: B1 light
modifications: NP engrafted HC
